Experimental data: the supplement of paper PMC8728848
The list shows a part of the results.

Columns and labels:
Assay in all cases: glycan array binding signal (z-score within array); higher = stronger binding
Settings in all cases: glycan notation: IUPAC condensed, linker removed
[1] = molecular target: Neu5Ac(a2-6)Gal(b1-4)GlcNAc(b1-3)Gal(b1-4)GlcNAc(b1-3)Gal(b1-4)GlcNAc
Procedure, shortened: (§1)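 Columns mapping to the same glycan were averaged after glycan names were converted to IUPAC-condensed notation. The data come from 3228 arrays in the Consortium for Functional Glycomics database, limited to those with an available protein sequence. Binding is reported as a within-array Z-score averaged across arrays of one protein sequence and across linkers.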

[2] = molecular target: Neu5Ac(a2-6)Gal(b1-4)GlcNAc(b1-3)Gal(b1-4)GlcNAc(b1-3)Gal(b1-4)GlcNAc(b1-2)Man(a1-3)[Neu5Ac(a2-6)Gal(b1-4)GlcNAc(b1-3)Gal(b1-4)GlcNAc(b1-3)Gal(b1-4)GlcNAc(b1-2)Man(a1-6)]GalNAc
Procedure, shortened: as §1

[3] = molecular target: Neu5Ac(a2-6)Gal(b1-4)GlcNAc(b1-3)Gal(b1-4)GlcNAc(b1-3)GalNAc
Procedure, shortened: as §1

[4] = molecular target: Neu5Ac(a2-6)Gal(b1-4)GlcNAc(b1-3)Gal(b1-4)GlcNAc(b1-3)[Neu5Ac(a2-6)Gal(b1-4)GlcNAc(b1-3)Gal(b1-4)GlcNAc(b1-6)]GalNAc
Procedure, shortened: as §1

[5] = molecular target: Neu5Ac(a2-6)Gal(b1-4)GlcNAc(b1-3)Gal(b1-4)GlcNAc(b1-6)[Gal(b1-3)]GalNAc
Procedure, shortened: as §1

[6] = molecular target: Neu5Ac(a2-6)Gal(b1-4)GlcNAc(b1-3)Gal(b1-4)[Fuc(a1-3)]GlcNAc(b1-3)Gal(b1-4)[Fuc(a1-3)]GlcNAc
Procedure, shortened: as §1

[7] = molecular target: Neu5Ac(a2-6)Gal(b1-4)GlcNAc(b1-3)GalNAc
Procedure, shortened: as §1

[8] = molecular target: Neu5Ac(a2-6)Gal(b1-4)GlcNAc(b1-3)[Neu5Ac(a2-6)Gal(b1-4)GlcNAc(b1-6)]GalNAc
Procedure, shortened: as §1

[9] = molecular target: Neu5Ac(a2-6)Gal(b1-4)GlcNAc(b1-6)GalNAc
Procedure, shortened: as §1

[10] = molecular target: Neu5Ac(a2-6)Gal(b1-4)GlcNAc(b1-6)[Gal(b1-3)GlcNAc(b1-3)]Gal(b1-4)Glc
Procedure, shortened: as §1

[11] = molecular target: Neu5Ac(a2-6)Gal(b1-4)GlcNAc(b1-6)[Gal(b1-3)]GalNAc
Procedure, shortened: as §1

[12] = molecular target: Neu5Ac(a2-6)Gal(b1-4)GlcNAc6S
Procedure, shortened: as §1

[13] = molecular target: Neu5Ac(a2-6)GalNAc
Procedure, shortened: as §1

[14] = molecular target: Neu5Ac(a2-6)GalNAc(b1-4)GlcNAc
Procedure, shortened: as §1

[15] = molecular target: Neu5Ac(a2-6)GalNAc(b1-4)GlcNAc6S
Procedure, shortened: as §1

[16] = molecular target: Neu5Ac(a2-6)GlcNAc(b1-4)GlcNAc
Procedure, shortened: as §1

[17] = molecular target: Neu5Ac(a2-6)GlcNAc(b1-4)GlcNAc(b1-4)GlcNAc
Procedure, shortened: as §1

[18] = molecular target: Neu5Ac(a2-8)Neu5Ac
Procedure, shortened: as §1

[19] = molecular target: Neu5Ac(a2-8)Neu5Ac(a2-3)Gal(b1-3)GalNAc(b1-4)[Neu5Ac(a2-3)]Gal(b1-4)Glc
Procedure, shortened: as §1

[20] = molecular target: Neu5Ac(a2-8)Neu5Ac(a2-3)Gal(b1-3)GalNAc(b1-4)[Neu5Ac(a2-8)Neu5Ac(a2-3)]Gal(b1-4)Glc
Procedure, shortened: as §1

[21] = molecular target: Neu5Ac(a2-8)Neu5Ac(a2-3)Gal(b1-4)Glc
Procedure, shortened: as §1

[22] = molecular target: Neu5Ac(a2-8)Neu5Ac(a2-3)Gal(b1-4)GlcNAc
Procedure, shortened: as §1

[23] = molecular target: Neu5Ac(a2-8)Neu5Ac(a2-3)[Gal(b1-3)GalNAc(b1-4)]Gal(b1-4)Glc
Procedure, shortened: as §1

[24] = molecular target: Neu5Ac(a2-8)Neu5Ac(a2-3)[GalNAc(b1-4)]Gal(b1-4)Glc
Procedure, shortened: as §1

[25] = molecular target: Neu5Ac(a2-8)Neu5Ac(a2-8)Neu5Ac
Procedure, shortened: as §1

[26] = molecular target: Neu5Ac(a2-8)Neu5Ac(a2-8)Neu5Ac(a2-3)Gal(b1-4)Glc
Procedure, shortened: as §1

[27] = molecular target: Neu5Ac(a2-8)Neu5Ac(a2-8)Neu5Ac(a2-3)[Gal(b1-3)GalNAc(b1-4)]Gal(b1-4)Glc
Procedure, shortened: as §1

[28] = molecular target: Neu5Ac(a2-8)Neu5Ac(a2-8)Neu5Ac(a2-3)[GalNAc(b1-4)]Gal(b1-4)Glc
Procedure, shortened: as §1

[29] = molecular target: Neu5Ac(a2-8)Neu5Ac(a2-8)Neu5Ac(a2-8)Neu5Ac(a2-3)[GalNAc(b1-4)]Gal(b1-4)Glc
Procedure, shortened: as §1

[30] = molecular target: Neu5Ac(a2-8)Neu5Gc(a2-3)Gal(b1-4)GlcNAc
Procedure, shortened: as §1

[31] = molecular target: Neu5Ac(b2-6)Gal(b1-4)GlcNAc
Procedure, shortened: as §1

[32] = molecular target: Neu5Ac(b2-6)GalNAc
Procedure, shortened: as §1

[33] = molecular target: Neu5Ac9Ac(a2-3)Gal(b1-3)GlcNAc
Procedure, shortened: as §1

[34] = molecular target: Neu5Ac9Ac(a2-3)Gal(b1-4)GlcNAc
Procedure, shortened: as §1

[35] = molecular target: Neu5Ac9Ac(a2-6)Gal(b1-4)GlcNAc
Procedure, shortened: as §1

[36] = molecular target: Neu5Gc(a2-3)Gal(b1-3)GlcNAc
Procedure, shortened: as §1

[37] = molecular target: Neu5Gc(a2-3)Gal(b1-3)[Fuc(a1-4)]GlcNAc
Procedure, shortened: as §1

[38] = molecular target: Neu5Gc(a2-3)Gal(b1-4)Glc
Procedure, shortened: as §1

[39] = molecular target: Neu5Gc(a2-3)Gal(b1-4)GlcNAc
Procedure, shortened: as §1

[40] = molecular target: Neu5Gc(a2-3)Gal(b1-4)GlcNAc(b1-3)Gal(b1-4)GlcNAc(b1-2)Man(a1-3)[Neu5Gc(a2-3)Gal(b1-4)GlcNAc(b1-3)Gal(b1-4)GlcNAc(b1-2)Man(a1-6)]Man(b1-4)GlcNAc(b1-4)GlcNAc
Procedure, shortened: as §1

[41] = molecular target: Neu5Gc(a2-3)Gal(b1-4)[Fuc(a1-3)]GlcNAc
Procedure, shortened: as §1

[42] = molecular target: Neu5Gc(a2-6)Gal(b1-4)GlcNAc
Procedure, shortened: as §1

[43] = molecular target: Neu5Gc(a2-6)GalNAc
Procedure, shortened: as §1

[44] = molecular target: Neu5Gc(a2-8)Neu5Ac(a2-3)Gal(b1-4)GlcNAc
Procedure, shortened: as §1

[45] = molecular target: Neu5Gc(a2-8)Neu5Gc(a2-3)Gal(b1-4)GlcNAc
Procedure, shortened: as §1

B1: CpGal16 (Clavelina picta) (protein)
chain: MAKMITNYVGKRIECIMVATDMMSTVFSLASATGDLPFYINFRQRENSIVMNTRVHGKWQYEKSQSSGGMNFYEPFRLVVEVRPSVFKVTVSTMGEEDGITFNLQYSQITIKPDEIVAMHLGYCNLRSELLVTDL
- glycan array binding signal (z-score) [1]: -0.379
- glycan array binding signal (z-score) [2]: 0.523
- glycan array binding signal (z-score) [3]: -0.48
- glycan array binding signal (z-score) [4]: 0.087
- glycan array binding signal (z-score) [5]: -0.287
- glycan array binding signal (z-score) [6]: -0.419
- glycan array binding signal (z-score) [7]: -0.29
- glycan array binding signal (z-score) [8]: -0.409
- glycan array binding signal (z-score) [9]: -0.02
- glycan array binding signal (z-score) [10]: 0.24
- glycan array binding signal (z-score) [11]: -0.336
- glycan array binding signal (z-score) [12]: -0.303
- glycan array binding signal (z-score) [13]: -0.443
- glycan array binding signal (z-score) [14]: -0.561
- glycan array binding signal (z-score) [15]: -0.353
- glycan array binding signal (z-score) [16]: -0.39
- glycan array binding signal (z-score) [17]: -0.261
- glycan array binding signal (z-score) [18]: -0.331
- glycan array binding signal (z-score) [19]: -0.355
- glycan array binding signal (z-score) [20]: -0.255
- glycan array binding signal (z-score) [21]: -0.512
- glycan array binding signal (z-score) [22]: -0.231
- glycan array binding signal (z-score) [23]: -0.334
- glycan array binding signal (z-score) [24]: -0.459
- glycan array binding signal (z-score) [25]: -0.39
- glycan array binding signal (z-score) [26]: -0.298
- glycan array binding signal (z-score) [27]: -0.334
- glycan array binding signal (z-score) [28]: -0.487
- glycan array binding signal (z-score) [29]: -0.464
- glycan array binding signal (z-score) [30]: -0.386
- glycan array binding signal (z-score) [31]: -0.501
- glycan array binding signal (z-score) [32]: -0.514
- glycan array binding signal (z-score) [33]: -0.346
- glycan array binding signal (z-score) [34]: -0.45
- glycan array binding signal (z-score) [35]: -0.515
- glycan array binding signal (z-score) [36]: -0.499
- glycan array binding signal (z-score) [37]: -0.496
- glycan array binding signal (z-score) [38]: -0.324
- glycan array binding signal (z-score) [39]: -0.363
- glycan array binding signal (z-score) [40]: 0.009
- glycan array binding signal (z-score) [41]: -0.415
- glycan array binding signal (z-score) [42]: -0.258
- glycan array binding signal (z-score) [43]: -0.503
- glycan array binding signal (z-score) [44]: -0.348
- glycan array binding signal (z-score) [45]: -0.505
